Where a name gives a salt, the structure may show the parent alone. Some of the results follow. No stated cut-off is given here; in the data, active = 0.5 or less and inactive = the rest. Repeats are few or missing, and single values can be far off.
What was measured:
Details in all cases: 50 µM; 24 h
[1] = tested on: HeLa VPS33A reporter cells; test: relative cell viability (CellMask signal) vs DMSO (fraction of DMSO); higher = less cytotoxic;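 further: primary screen of an FDA-approved drug library in HeLa reporter cells in 96-well format, CellMask signal normalized to DMSO-treated wells set as 1, under 0.5 deemed highly cytotoxic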
[2] = tested on: HeLa VPS33A R498W KI + HA-SDC1-FLAG; test: relative GAG core protein HA-SDC1 amount per cell number vs DMSO (fraction of DMSO); higher = more SDC1 (GAG core protein);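 further: HA-SDC1 level read out by In-Cell Western staining with an anti-HA antibody against the N-terminal tag, screening FDA-approved library drugs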
[3] = tested on: HeLa VPS33A KO + NLuc-VPS33A R498W; test: relative mutant VPS33A R498W amount (NanoLuc luminescence) vs DMSO (fraction of DMSO); HeLa model of a glycosaminoglycan (GAG) storage disease; KI is knock-in and KO knock-out; SDC1 is syndecan 1; higher = higher mutant VPS33A level;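 further: screen of an FDA-approved drug library, NanoLuc luminescence read after lysing the treated cells, taken as a measure of mutant VPS33A protein stability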

SMILES | relative cell viability [1] | relative GAG core protein HA-SDC1 amount per cell number [2] | relative mutant VPS33A R498W amount [3]
C#Cc1cccc(Nc2ncnc3cc4c(cc23)OCCOCCOCCO4)c1 [Icotinib] | 1.22 | inactive: 1.25 | 1.32
COc1ccc2ccc(=O)oc2c1CC=C(C)C [Osthole] | 1.01 | inactive: 1.02 | 1.34
O=C([O-])c1ccccc1.[Na+] [Sodium benzoate] | 0.987 | inactive: 1.02 | 0.998
N[C@@H](CC(=O)N1CCn2c(nnc2C(F)(F)F)C1)Cc1cc(F)c(F)cc1F [Sitagliptin phosphate monohydrate] | 1.27 | inactive: 0.94 | 0.765
O=C(O)C(=O)O.[NH-][C@@H]1CCCC[C@H]1[NH-].[Pt+2] [Oxaliplatin] | 1.25 | active: 0.339 | 4.31
C[C@H]1c2cccc(O)c2C(O)=C2C(=O)[C@]3(O)C(O)=C(C(N)=O)C(=O)[C@@H](N(C)C)[C@@H]3[C@@H](O)[C@@H]21 [Doxycycline HCl] | 1.26 | active: 0.425 | 0.294
O=C1CC[C@@H](C(=O)N2CSC[C@H]2C(=O)O)N1 [Pidotimod] | 0.913 | inactive: 1.08 | 1.59
CN(C)CCc1c[nH]c2ccc(CS(=O)(=O)N3CCCC3)cc12 [Almotriptan Malate] | 1.05 | inactive: 0.896 | 1.37
Cc1c(-c2ccnn2C)cc(C(=O)NCc2ccc(S(C)(=O)=O)cn2)c(=O)n1-c1cccc(C(F)(F)F)c1 [Alvelestat] | 1.22 | inactive: 1.2 | 0.985
C[C@H]1C[C@@H]2[C@H]([C@@H](O)C[C@@]3(C)[C@H]2CC[C@]3(O)C(=O)CO)[C@@]2(C)C=CC(=O)C=C12 [Methylprednisolone] | 0.988 | inactive: 1.75 | 0.818
O=c1ccc2cc3ccoc3cc2o1 [Psoralen] | 0.996 | inactive: 0.885 | 1.16
CC(=O)Nc1ncc([N+](=O)[O-])s1 [Nithiamide] | 0.927 | inactive: 0.906 | 1.24
NCC(=O)CCC(=O)O [5-Aminolevulinic acid HCl] | 0.946 | inactive: 0.883 | 1.39
OC(Cn1cncn1)(Cn1cncn1)c1ccc(F)cc1F [Fluconazole hydrate] | 1.34 | inactive: 0.752 | 0.763
OC[C@H]1O[C@@H](Oc2cc(O)cc(/C=C/c3ccc(O)cc3)c2)[C@H](O)[C@@H](O)[C@@H]1O [Polydatin] | 1.03 | inactive: 0.953 | 1.17
CC(C)C(=O)OCC(=O)[C@@]12O[C@H](C3CCCCC3)O[C@@H]1C[C@H]1[C@@H]3CCC4=CC(=O)C=C[C@]4(C)[C@H]3[C@@H](O)C[C@@]12C [Ciclesonide] | 0.945 | inactive: 0.62 | 0.534
CCCSc1ccc2[nH]c(NC(=O)OC)nc2c1 [Albendazole] | 0.535 | inactive: 0.743 | 0.582

SMILES | relative cell viability [1] | relative GAG core protein HA-SDC1 amount per cell number [2] | relative mutant VPS33A R498W amount [3]
C[C@@H](CN1CC(=O)NC(=O)C1)N1CC(=O)NC(=O)C1 [Dexrazoxane] | 1.02 | inactive: 0.704 | 0.984
O=NN(CCCl)C(=O)NC1CCCCC1 [Lomustine] | 0.955 | inactive: 0.83 | 0.785
CN(C)CCOC(c1ccccc1)c1ccccc1 [Diphenhydramine HCl] | 0.986 | inactive: 0.907 | 1.19
O=C(/C=C/c1ccc(O)c(O)c1)O[C@@H]1C[C@](O)(C(=O)O)C[C@@H](O)[C@H]1O [Chlorogenic acid] | 1.03 | inactive: 0.981 | 1.38
C[C@H](C(=O)O)c1ccc(-c2ccccc2)c(F)c1 [(S)-Flurbiprofen] | 1.01 | inactive: 0.779 | 1.2
CC[C@H](C)C(=O)O[C@H]1C[C@H](O)C=C2C=C[C@H](C)[C@H](CC[C@@H](O)C[C@@H](O)CC(=O)O)[C@H]21 [Pravastatin] | 1.31 | inactive: 1.04 | 1.1
CC(=O)[C@H]1CC[C@H]2[C@@H]3C=CC4=CC(=O)CC[C@@]4(C)[C@@H]3CC[C@]12C [Dydrogesterone] | 0.887 | inactive: 0.668 | 1.01
CC(C)C[C@H](NC(=O)[C@@H](O)[C@H](N)Cc1ccccc1)C(=O)O [Bestatin] | 1.46 | inactive: 0.868 | 1.03
N[C@H](CO)C(=O)O | 1.13 | inactive: 1.25 | 1.3
CCCCCCCCCCCCCCCCO [1-Hexadecanol] | 1.07 | inactive: 1.05 | 1.22
CN1CCN(c2cc3c(cc2F)c(=O)c(C(=O)O)cn3-c2ccc(F)cc2)CC1 [Difloxacin HCl] | 1.54 | inactive: 0.955 | 1.11
Cc1cnc(C(=O)O)c[n+]1[O-] [Acipimox] | 0.998 | inactive: 0.903 | 1.64
CN1CCN(C2=Nc3cc(Cl)ccc3Nc3ccccc32)CC1 [Clozapine] | 0.666 | active: 0.278 | 0.456
CN1CCC(OC(c2ccccc2)c2ccccc2)CC1 [Diphenylpyraline HCl] | 1.13 | inactive: 1.32 | 0.437
O=C(O)C1=C(CSc2nnnn2CS(=O)(=O)O)CS[C@@H]2[C@H](NC(=O)[C@H](O)c3ccccc3)C(=O)N12 [Cefonicid (sodium salt)] | 0.99 | inactive: 0.849 | 1.48
Nc1nc2ccc(OC(F)(F)F)cc2s1 [Riluzole] | 0.877 | active: 0.387 | 0.389
COC(=O)N[C@H](C(=O)N[C@@H](Cc1ccccc1)[C@@H](O)CN(Cc1ccc(-c2ccccn2)cc1)NC(=O)[C@@H](NC(=O)OC)C(C)(C)C)C(C)(C)C | 1.1 | inactive: 0.548 | 0.916

Reference: the supplement of paper PMC12355420
